19 variants from the RNAGym collection of RNA variant scans (doi:10.1073/pnas.2313332121) can be followed below.

To fix the notation:
B1: TPR 5TU (parent)
chain: GGAUCUUCUCGAUCUAACAAAAAAGACAAAUCUGCCACAAAGCUUGAGAGCAUCUUCGGAUGCAGAGGCGGCAGCCUUCGGUGGCGCGAUAGCGCCAACGUUCUCAACUAUGACACGCAAAACGCGUGCUCCGUUGAAUGGAGUUUAUCAUG

Variants at the floor of the assay are shown more often than the library holds them. Some results are limits rather than exact numbers.

Variants of B1 are the subject of this data set. The data set can be described thus: polymerase ribozyme fitness, log enrichment relative to wild type (log ratio); higher = more active; in vitro selection for triplet polymerase activity. The method, boiled down: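 Mutant libraries of each subunit of a heterodimeric triplet polymerase ribozyme were built by PCR and transcribed. Each library went through one round of in vitro selection in triplicate: annealing with biotinylated primer, partner subunit and triplets, frozen incubation at −7 °C, gel excision of extended constructs, streptavidin-bead capture and RT-PCR. Input and output libraries were Illumina-sequenced; only genotypes with ≥10 input reads and ≥1 read per output were kept. Fitness is log2(genotype enrichment/wild-type enrichment), using inverse-variance-weighted replicate averages.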
As to GGAUCUUCUCGAUCUAACAAAAAAGACAAAUCUGCCACAAAGCUUGACAGUAUCGUCGGAUGCAGAGGCGGCAGCCUUCGGUGGCGCGAUAGCGUCAACGUUCUCAACUAUGACACGCAAAACGCGUGCUCCGUUGAAUGCAGUUUAUCAUG [G48C C51U U55G C95U G141C], the “polymerase ribozyme fitness (log ratio)” value is at most -4.2.

For the variant GGAUCUUCUCGAUCUAACAAAAAAGACAAAUCUGCCACAAAGCUUGACAGCCUCUUAGGAUGCAGAGGCGGCAGCCUUCGGUGGUGCGAUAGCGCCAACGUUCUCAACUAUGACACGCAAAACGCGUGCUUCGUUGAAUGGAGUUUAUCAUG [G48C A52C C57A C85U C131U], the “polymerase ribozyme fitness (log ratio)” value was at most -4.2. Take GGAUCUUCUCGAUCUAACAAAAAAGACAAAUCUGCCACAAAGCUUGAUAGCAUCUUCGGAUGCAGAGGCGGCAGCCUUGGGUGGCGCGAUAGCGCCAACGUUCUCAACUAUGACACGCAAAACGCGUGCUCCGUUGAAUGGAGUUUAUCAUG [G48U C79G]: the “polymerase ribozyme fitness (log ratio)” value is at most -4.2. As for GGAUCUUCUCGAUCUAACAAAAAAGACAAAUCUGCCACAAAGCUUGACAGCAUCAACGGAUGCAGAGGCGGCAGCCUACGGUGGAGCGAUAGCGCCAACGUUCUCAACUAUGACACGCAAAACGCGUGCUCCGUUGAAUGCAGUUUAUCAUG [G48C U55A U56A U78A C85A G141C], the “polymerase ribozyme fitness (log ratio)” value is at most -4.2. For the variant GGAUCUUCUCGAUCUAACAAAAAAGACAAAUCUGCCACAAAGCUUGAUAGCAUCUUCGGAUGCAGAGGCGGCAGCCUUCGGUGCCGCGAUAGCGCCAACGUUCUCAACUAUGACUCGCAAAACGCGUGCUCCGUUGAAUGGAGUUUAUCAUG [G48U G84C A115U], the “polymerase ribozyme fitness (log ratio)” value was at most -4.2. For GGAUCUUCUCGAUCUAACAAAAAAGACAAAUCUGCCACAAAGCUUGAUCCCAUCUUCGGAUGCAAAGGCGGCUGCCUUCGGUGGGGCGAUAGCGCCAACGUUCUCAACUAUGACACGCAAAACGCGUGCUCCGUUGAAUGAAGUUUAUCAUG [G48U A49C G50C G65A A73U C85G G141A], the “polymerase ribozyme fitness (log ratio)” value is at most -4.2. As for GGAUCUUCUCGAUCUAACAAAAAAGACAAAUCUGCCACAAAGCUUGAGCGCAUCUUCGGCUGCAGAGGCGGCAGCCUUCGGUGGCUCGAUAGCGCCAACGUUCUGAACUAUGACACGCAAAACGCGUGCGCCGUUGAAUGGAGUUUAUCAUG [A49C A60C G86U C105G U130G], the figure is at most -4.2; as for GGAUCUUCUCGAUCUAACAAAAAAGACAAAUCUGCCACAAAGCUUGAGCGCAUCUUCGGAUGCAGAGGCGGCAGCCUUCGGUGGCGCGAUAGCGCCAACGUUCUCAACUAUGACACGCAAAACGCGUGCUCCGUUGGAUGGAGUUUAUCAUG [A49C A137G], at most -4.2; as for GGAUCUUCUCGAUCUAACAAAAAAGACAAAUCUGCCACAAAGCUUGAGCGCCUCUUCGGAUGCAGAGGCGGCAGCCUUCGGUGGAGCGAUAGCGCCAACGUUCUCAACUAUGACACGCAAAACGCGUGCUCCGUUGGAUGGAGUUUAACAUG [A49C A52C C85A A137G U148A], at most -4.2. As for GGAUCUUCUCGAUCUAACAAAAAAGACAAAUCUGCCACAAAGCUUGAUAUCAUCUUCGGAUGCAGAGGUGGCAGCCUUCGGUGGGGCGAUAGCGCCAACGUUCUCAACUAUGACACGCAACACGCGUGCUCCGUUGAAUGGAGUUUAUCAUG [G48U G50U C69U C85G A121C], the figure is at most -4.2; as for GGAUCUUCUCGAUCUAACAAAAAAGACAAAUCUGCCACAAAGCUUGACAGCAUCUUCGGAUGCAGAGGCGGCUGCCUUCGGUGGCGCGAUAGCGCCAAGGUUCUCAACUAUGACACGUAACACGCGUGCUCCGUUGAAUGGAGUUUAUCAUG [G48C A73U C99G C118U A121C], at most -4.2. On to GGAUCUUCUCGAUCUAACAAAAAAGACAAAUCUGCCACAAAGCUUGACAGCAUCAUCGGAUGCGGAGGCGGCUGCCUUCGGUGGCGCGAUAGCGCCAACGUUCUCAACGAUGACACGCAAAGCGCGUGCUCCGUGGAAUGGAGUUUAUCAUG [G48C U55A A64G A73U U109G A122G U135G], for which the “polymerase ribozyme fitness (log ratio)” value is at most -4.2.

Regarding GGAUCUUCUCGAUCUAACAAAAAAGACAAAUCUGCCACAAAGCUUGAGCGCCUCUACGCAUGCAGAGGCGGCAGCCUUCGGUGGUGCGAUAGCGCCAACGUUCUCAACUAUGACACGCAAAACGCGUGCUCCGUUGAAUGGAGUUUAUCAUG [A49C A52C U56A G59C C85U], the “polymerase ribozyme fitness (log ratio)” value was at most -4.2. Take GGAUCUUCUCGAUCUAACAAAAAAGACAAAUCUGCCACAAAGCUUGAUUGCAUCUUCGGAUGCAGAGGCGGCAGCCUUCGGUGGCGCGAUAGUGCCAACGUUCUCAACUAUGACACGCAAAACGCGUGCUCCGUUGAAUGGAGUUUAUCAUG [G48U A49U C93U]: the “polymerase ribozyme fitness (log ratio)” value was at most -4.2. As for GGAUCUUCUCGAUCUAACAAAAAAGACAAAUCUGCCACAAAGCUUGACAGCAUCUUAGGAUGCAGAGGCGGGAGCCUUCGGUGGCGCGAUAGCGCCAACGUUCUCAACUAUGACACGCAAAACGCGUGCUCCGUUGAAUGGAGUUUAUCAGG [G48C C57A C72G U151G], the figure is at most -4.2; as for GGAUCUUCUCGAUCUAACAAAAAAGACAAAUCUGCCACAAAGCUUGAUACCAACUUCGGAUGCAGAGGCGGCAGCCUUCGGUGGCGCGAUAGCGCCAACGUUCUCAACUAUGACGCGAAAAACGCGUGCUCCGUCGAAUGGAGUUUAUCAUG [G48U G50C U53A A115G C118A U135C], at most -4.2; as for GGAUCUUCUCGAUCUAACAAAAAAGACAAAUCUGCCACAAAGCUUGACCGCAUCUUCGAAUGCAGAGGCGGCAGCCUUCGGUGGGGCGAUAGCGCCAACGUUCUCAACUAUGACACGCAAAACGCGUGCUCCGUUGAAUGGAGUUUAUCAUG [G48C A49C G59A C85G], at most -4.2. The same measure for GGAUCUUCUCGAUCUAACAAAAAAGACAAAUCUGCCACAAAGCUUGAUAGCAUCUUCGGAUGCAGAGGCGGCAGCCUUCGGUUGCGCGCUAGCGCCAACGUUCUCAACUAUGACACGCAAAACGAGUGCUCCGUCGAAUGGAGUUUAUCAUG [G48U G83U A89C C125A U135C]: at most -4.2; for GGAUCUUCUCGAUCUAACAAAAAAGACAAAUCUGCCACAAAGCUUGAUAGCAUCUUCGGAUUCAGAGGCGGCUGCCUUCGGUGCUGCGAUAGCGCCAACGUUCUCAACUAUGACACGCAAAACGCGUGCUCCGUUGAAUGGAGUUUAUCAUG [G48U G62U A73U G84C C85U]: at most -4.2.
